Measurements from the supplement of paper PMC12632987.
The full ranking holds about 4,500 sequences; the median of “median log2 fold change of GCK-ALFA target abundance (FLAG IP / Myc IP barcode read proportion)” is about 0.078, and the lowest 2% start at about -0.6. The list shows a part of the results.

B1: GBRAP_83_6992 (protein)
chain: KEKIVVAAPGDRIEEAVEIAIDLTKEEGLEVDIEIIARREDLPRVLEAARKLAEAGINTELTVILEGATEEEAEKLEAEIKAIAEKYGVDIKVTIHLVEP
B2: GBRAP_42_5729 (protein)
chain: MIAITLEIVADTQEEAQAMVDAALAEDERLLKEKGVVVRIEVAVPEGLSPEIKAKEAASAERAKTATHESDWVGVANTLEEVPKTIEAVADEALAELAEK
B3: GBRAP_78_6704 (protein)
chain: EVEELLDKAIEELNKAAKLLVPLKTELANDALGEIVDASSYLVESEENGVDKELVKEALEEVEKAIELAKKLDSEKKPEILEHLEKAKELIKKALELLEK
B4: GBRAP_52_5880 (protein)
chain: KLEEAIKKLKEAIEAMKAGDKEEAEKILKEIVEEFDEETILKAVEKLAEEIKSKSLEEAKAFYETAEKLAEILLEEGGSEEVASYIEALAGAALYEVEQK
B5: GBRAP_9_7174 (protein)
chain: LKKAAEKAIKEAKEAKAFILEIAPEAAAGAVAEAFDELIKTLEEAKADPSVTKEEFEKALEEGIAKIIANAKAHLSPEVAAAVETEMYTIEYEADEELDK
B6: GBRAP_11_2810 (protein)
chain: KKEKLKKAAELAEKAAKAVEKLLKEGVDNEELLKKIEELLKELEKLAKEYLDKGTQKLVEIAKELLKEAKEDKENAKKYLEELLATLRVALGNVLLEIEE
B7: GBRAP_160_4542 (protein)
chain: SEKVEELLEDLDEETEELKELVDKVSNEELINFVDVSIGSLILEGIELGLFSDETEDEIDEIRDETLARLKENKNASPEEKKAIIEEAAEKIKEVIKKSS
B8: GBRAP_184_5312 (protein)
chain: EVKEVVIEAETAEEAIKKLEEAAKKAKEEGVKLNVYLFLKNVDVEGFKRIAEKIKELKEEGIIENAVVHIEDDKSEEEIDKFIEIADAAGIKLVVALPDE
B9: GBRAP_160_4328 (protein)
chain: SESVEKLKKEIKEEFEELKELIKGESIEQRKVLLAGTFGEILMLLSENPDVSDEALDKVDEIEDEALKTLDENPDLSEEEIKKLIEESEEKVLKTLDELA
B10: GBRAP_78_6724 (protein)
chain: KLEELIEEAIEELNKAAKLLKEFPEEDRNELLDLIVDAMSYLLEAEEEGGDLEELEKALEEVEKAIELVKKLNREEAKPLLEELEKARKLLEEAIKLLKE
B11: GBRAP_139_3687 (protein)
chain: SALEAKIAEAVALAERTLTEGEAPLRALARLLASLNEEDRIAVARAIGERLLDLPYDTAEAIFDRLEAIAREELGDEDLAEIIEAERNELLARIAVREEE
B12: GBRAP_52_5994 (protein)
chain: MREEAREVAERAVALRLAGREEEARALLEEVAETKSEEFLEMVARELAELARTADPATRDAIVDVAIMLEDIMHEKGFDEAIADTNLARVAAAAYDALQR
B13: GBRAP_83_6994 (protein)
chain: KEKITVAAPGDHLAEAADAAIDLHKEEGYEVELEFLITPEDREAVLAAVERLAKAGIETEVTVLAEGFTPEELAELEAELKAIAAAAGAKIKITVEGIEL
B14: GBRAP_83_6962 (protein)
chain: MEEVVVATTKDHVESAAEAARDLATEEGYKVTVELLGDPEEVLESAKIVAEALKDLPNVEIRAVIENVRKEEAEKTKEELKKIGEKYGLKIEFEAELVEP
B15: GBRAP_52_6262 (protein)
chain: MREELRRKAEEALALVKEGKEEEARKLLKELAEELNEEEFELFVDEVARLAEEAAPEDLEAMERLVELAAEEFEEAGKPEELVSLLEAEGYGALYKRRQA
B16: GBRAP_128_3574 (protein)
chain: SSEEVLEKAKKLIKKIIESDVEEAKKYAKELVELLKEADPETREKIVEEILKALPKLTVEKLETLADVFREKMPEADPEVANLLAEIAVEALNLAVEKEE
B17: GBRAP_125_3111 (protein)
chain: DMEEVLEALAIVLRALGFDDDEIEEALELARRYGIKGTMIAVALAEGYEEVADLLEKLTEEEVKQALLETAAAIKANPELTPEEVKELLEEVLKKLLAAS
B18: GBRAP_52_5999 (protein)
chain: AEARIAAVAEALVAAVLAGDEAGLRALLREAAATLTPEEIVAMVARATRLLARDPRATDEDLRRFIDTVEEVLEEAGQPDEVRADVTGAIARALAEAEAE
B19: GBRAP_160_4719 (protein)
chain: SAAVERAIEAVEEAIEEVLELRPEVSAEELANAADTIIGSEILELIEEGELNEELEEALDEIRDELVATILATGDKPREEFEKALKEVLEEAKKRLEALS
B20: GBRAP_125_3070 (protein)
chain: PSAEALANLATLARALGFSDSEVAEAVAIAAASSIKQTLVAIALAEDAEELADAVEKLTEAQAEQLLAQVAAELAAHPDLTPEEVLARALELANALVAAA
B21: GBRAP_45_5805 (protein)
chain: SAEKQKAYEEALKKLEEAIKEAEKLKKLDPEFFTKLKKRLEELLKRLKEHKNDAAAIEEIAKELEALLKEALANPKASGELLEALLEAANKVWELGELLK
B22: GBRAP_74_6544 (protein)
chain: NAARAAALIETLETGSPEERRATLESLPLDFSTEDLKRLLLAVAREAQRAAAAGDEALLEAATDALVRLYDRLAGEPLSPETDAALVAALAAAVEAEKKR
B23: GBRAP_52_6347 (protein)
chain: MEERMRKLAEELVELVEAGRLDEARALAAEIVATLSDEEIEMLFKELARMAKEATPERAEAILEAAEILADEMIAAGRDEYLASGYLADVGKAVYENLQK
B24: GBRAP_160_4274 (protein)
chain: SEELEELIKEVKESKEEILKLVDEISPEEVKVFAVTELGSHLLEAIELGVVSDEEEDELGEIIDELEEELEKAKNASPEEIKKIIKEHYDKFIEILEKSK
B25: GBRAP_83_6964 (protein)
chain: MEKITVATTADHIDSAIDAAKDLATEEGYEVTVELIGSPEEVLASAEKVAKALKDIPNVEIRAAVENVRPEEAEELKKRLAEIGEKYGLKVEVDYDIVEP
B26: GBRAP_128_3235 (protein)
chain: MDPELKARVDELIEKIINGDVAEAAAATAELVALMGEVSLEEAEEIAERLIEALEKLTVEKLETVADTIRANRGTLDPEKANLALEVEIEALNRAEELEE
B27: GBRAP_52_6331 (protein)
chain: SHEEVEKMAEELYKAIVAGKEEEAKKLAEEMVETLSSEEILEAARIVAERVAKEGDEVKVRAAEVFEYLAELVEEKRGDERTAAEILGIYATTLYAAEQA
B28: GBRAP_160_4077 (protein)
chain: SEETEELKKEIKELFEEAVEWMKEEDYERRVAIARVMAGDVLMLVFEDPKMSDEQEEEVDETLDATVAEIEANPNISDEELAKLLKETAEKVIEIVEKAD
B29: GBRAP_11_2797 (protein)
chain: KKEKLEKAYELAEKLAELLKKLIEEGVDNEELLKKIEEALKELEKLAKEYLDKGLQKLVKIAKELFEEIKKNPEKALEYAELALATIRVLAGNIKLEIEE

Biological target: GABARAP, O95166
Assay: median log2 fold change of GCK-ALFA target abundance (FLAG IP / Myc IP barcode read proportion) (log2 ratio); each designed protein is fused to an ALFA-tag nanobody in HEK293 cells to bring the named protein to FLAG-tagged glucokinase (GCK); Myc marks an untargeted standard; higher = target protein stabilised (more abundant)
Conditions: target protein: 3xFLAG-MCP-GCK-ALFA reporter; HEK293 landing pad (RPLP)
Outline: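 HEK293 landing-pad cells received a recombined binder library fused to the ALFA nanobody and were induced with 2 μg mL^−1 doxycycline, then transfected with a plasmid encoding a FLAG-tagged target and a Myc-tagged standard. Lysates were collected after 48 h for anti-FLAG and anti-Myc immunoprecipitation, and the circular RNA barcodes were reverse transcribed, amplified and sequenced. Target abundance for each binder is the median log2 ratio of FLAG to Myc barcode read proportions. Barcodes had to reach a proportion of at least 10^−7 in both replicates, each binder needed at least 3 barcodes per replicate, a pseudocount of 10^−6 was applied, and the two replicates were pooled.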

Chain of GABARAP, O95166 (O95166 whole entry, the tested form may be a part): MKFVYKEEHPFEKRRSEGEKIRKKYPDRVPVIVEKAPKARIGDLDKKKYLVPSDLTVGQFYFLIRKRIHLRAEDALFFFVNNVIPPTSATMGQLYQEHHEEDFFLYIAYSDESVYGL

| Binder | median log2 fold change |
| --- | --- |
| B1 | 0.0198 |
| B2 | -0.261 |
| B3 | 0.211 |
| B4 | 0.268 |
| B5 | -0.218 |
| B6 | 0.179 |
| B7 | -0.0705 |
| B8 | 0.275 |
| B9 | -0.0431 |
| B10 | 0.0739 |
| B11 | 0.162 |
| B12 | 0.194 |
| B13 | 0.106 |
| B14 | 0.214 |
| B15 | -0.0543 |
| B16 | 0.241 |
| B17 | -0.903 |
| B18 | 0.173 |
| B19 | 0.0545 |
| B20 | -0.0825 |
| B21 | 0.13 |
| B22 | -0.051 |
| B23 | 0.146 |
| B24 | 0.0705 |
| B25 | 0.147 |
| B26 | -0.0601 |
| B27 | 0.372 |
| B28 | -0.215 |
| B29 | -0.0559 |
